Values of other authors in PMC12209146 (Cellular and Molecular Life Sciences: CMLS, 2025).
No end group written: not given here.

Details: mass spectrometry, Orbitrap Elite System; cited from earlier work
Text: […] . When performing transmission electron microscopy, we observed that Angie 5 disrupted the bacterial cell membranes, contributing to ...

## KAINTFIHGNKISIKAI [Angie 1]
  Half-life (serum stability): 3.058 min
